± gives the standard deviation of the averaged measurements. This is one part of the list.

From the supplement of paper PMC11417369 come the findings set out here.

The test system of the assay is PfAP2-LT AP2 domain (GST-tagged). Put plainly: gcPBM binding intensity (ln(normalized median fluorescence intensity)); higher = stronger DNA binding. The method in brief: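 After 1 h on an Agilent 4 × 180k array of primer-extended double-stranded 36-bp intergenic genomic probes and negative controls, bound GST-tagged P. falciparum DNA-binding domains were detected with Alexa488 anti-GST antibody and scanned at 488 nm. The domains had been expressed in E. coli, and binding took place in 1× PBS with 1% milk, 0.2 mg/ml BSA, 0.5% salmon testes DNA and 0.03% Triton X-100. Binding intensity is the highest Masliner-normalised natural-log median intensity across replicate spots of either probe orientation.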
Regarding “TTAAGAAATAACAATGCACACATTTAGGTCTTTTAT [CACACA_site3285]”, the “gcPBM binding intensity (ln)” value was 8.88 ± 0.43. Take “ATAACTTGTATATATACACACACACCCTTTCTTTTT [CACACA_site8600]”: the “gcPBM binding intensity (ln)” value is 9.79 ± 0.47. The value for “TATATTATATTATACATACACACCCATATAATATGT [CACACA_site869]” was 9.15 ± 0.41; that for “ATTTAAAAAAAAATGGCACACATTTTAATTTTATGT [CACACA_site1740]” was 8.76 ± 0.46. With “TTTTTGTTTCGTTACGCATGCCAAAAGTAAAAATAT [TGCATGCA_site536]” the figure was 8.61 ± 0.4; with “TTGTGTCATATATTTTGTAATCAAAATAATTTTATT [TGCATGCA_negctrl_site307]”, 8.45 ± 0.5.

Turning to “TTTTTAATGATCAGACGTACAGTTATGAAGAAATTT [XGTACX_site6394]”, the “gcPBM binding intensity (ln)” value stood at 8.53 ± 0.38. The value for “GTAATGTCGTCGTTTTGTACATATTTTTATAAAAAG [XGTACX_site2688]” was 8.77 ± 0.36; that for “TATTATAAATTAATTTTAAACTTTATTATTATGATA [GTGCAC_negctrl_site389]” was 8.15 ± 0.49. With “TATTAGTCGAATGATGTACACACATACAAAACATTT [CACACA_site9331]” the figure was 9.12 ± 0.38. Turning to “AAAGGAGACAGAATAAGAATAAATATTATACATATA [XGTACX_negctrl_site412]”, the “gcPBM binding intensity (ln)” value was found to be 8.71 ± 0.62.

For “AAAAAAAAAAAGAACTCACACATAATAATGTATATG [CACACA_site4974]”, the “gcPBM binding intensity (ln)” value amounted to 8.64 ± 0.47. On to “TTAAAATTATATCTGTGTACATAAATTGTGTAACTA [XGTACX_site1966]”, for which the “gcPBM binding intensity (ln)” value was determined as 8.62 ± 0.38.

As to “TGGGAAAACCCCAGAAGTACGCTTAATATAAAAAAT [XGTACX_site697]”, the “gcPBM binding intensity (ln)” value came out at 8.72 ± 0.51.

Consider “ATAATGTTCCTATGATGTACTTATAATTATCATTTT [XGTACX_site4017]”, for which the “gcPBM binding intensity (ln)” value was 8.86 ± 0.45. As for “ATTAAAATAATATAAACACACATATACTTTTTTCTA [CACACA_site565]”, the “gcPBM binding intensity (ln)” value amounted to 8.63 ± 0.45. Take “TATTGTTCGTTTAAGGTGCTATTGTTTGCAAAATAT [GTGCAC_site9412]”: the “gcPBM binding intensity (ln)” value worked out at 8.83 ± 0.33. The value for “AAGAGGTTATTACATTCACATAACATCAATATACGT [GTGCAC_negctrl_site264]” was 8.88 ± 0.45. For the sequence “TAGCGTACATTTCATTGTAATCATAAAAAATAAAGA [CACACA_negctrl_site447]”, the “gcPBM binding intensity (ln)” value is 8.54 ± 0.51. Take “TTAAAACATATTTTGAATTAATATATTTTAATATTA [XGTACX_negctrl_site148]”: the “gcPBM binding intensity (ln)” value was 8.05 ± 0.5. With “ATTCATATGTGACACACACACACACGCATAAAAAAA [CACACA_site7515]” the figure was 10 ± 0.29; with “ACAAAAATATATATATGTACATATATCATCATAATA [XGTACX_site5850]”, 8.83 ± 0.45. In the case of “TTTATTAGAACCGTACGTACATAGTTATTTTTTCAA [XGTACX_site8848]”, the “gcPBM binding intensity (ln)” value is 8.67 ± 0.38. The value for “GTTTGTATAGGTTCATGTACAAAAAAAAAAAAAAAA [XGTACX_site537]” was 8.49 ± 0.49.
